Screen size: about 46,000 compounds; about 60 (0.1%) were called active. Another 3% or so got no clear call; they are omitted. The call rests on the fitted dose curve; in most records, active means well fitted inhibition curve with a large enough effect; inconclusive means small, poorly fitted or top-dose-only effect; inactive means no such curve, though single readings can be large or run the other way. This is one part of the list.
Assay: Primary qHTS assay for Inhibitors of ovarian cancer metastasis using an organotypic tumor microenvironment (TME) model. Further: nearly all actives have a fitted effect of over 65% in size.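 On activity change, negative = inhibition: plate controls were DMSO wells for no effect and tomatine positive control wells for full effect.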
Conditions: SKOV3ip1-GFP adhesion/invasion on 3D omental model, fluorescence; series mostly up to 45.8 µM; activity change, negative = inhibition: at the top concentration
Outline: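 Adhesion/invasion was scored as fixed GFP-labeled SKOV3ip1 cell counts (488/509 nm), normalized to DMSO and tomatine controls. Cancer cells in serum-free medium, with four compound doses (0.36-46 umol/L), sat 2 hr at RT then 16 hr at 37 C on a 48 hr fibroblast/mesothelial/ECM culture.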

Activity change, negative = inhibition, inactive:
COc1cccc2sc(N(Cc3cccnc3)C(=O)c3ccc(S(=O)(=O)N(C)C)cc3)nc12 11.5%
CCOC(=O)C1CCN(c2ncnc3c2c(-c2ccccc2)cn3-c2ccc(C)c(Cl)c2)CC1 -5.7%
CCc1cc(=O)[nH]c(SCc2nc(-c3ccccc3C)no2)n1 2.53%
COc1nnc(-c2ccc(N3CCCCC3)c(NC(=O)c3ccc(Cl)cc3)c2)c2ccccc12 5.97%
COc1ccc(-c2cc(C(F)(F)F)nc(SCC(=O)Nc3ccc(C(C)=O)cc3)n2)cc1 1.99%
Cc1cc(OCC(=O)Nc2ncn[nH]2)c(C)c(C)c1Br 52.3%
O=C(/C=C/c1cn(CC(O)CN2CCc3ccccc32)c2ccccc12)c1ccc(Br)cc1 (stereo unspecified) -9.56%
CCC(=O)N1c2ccc(S(=O)(=O)NCCc3ccccc3)cc2CC1C (stereo unspecified) -23.7%
COc1ccc(OC)c(NC(=O)c2nc(SCc3ccc(F)cc3)ncc2Cl)c1 -5.19%
Cc1ccc(CNS(=O)(=O)c2c(C(=O)N3CCC(C)CC3)c(C)n(C)c2C)cc1 -2.61%
CCOC(=O)c1[nH]c(C)c(CCC(=O)NCc2ccc(OC(C)C)cc2)c1C -2.31%
COC(=O)c1ccccc1NC(=O)N(Cc1ccc(C)cc1)Cc1cccn1-c1nnc(N2CCCC2=O)s1 -17.6%
CCc1ccc(S(=O)(=O)c2cn(CC(=O)Nc3cccc(C)c3)c3ccc(Cl)cc3c2=O)cc1 6.98%
Cc1cccc(NC(=O)CSc2nnc3c4ccccc4n(C)c3n2)c1 -15.5%
Cc1sc2ncn(CC(=O)Nc3ccc(C(F)(F)F)cc3)c(=O)c2c1S(=O)(=O)N1CCN(C)CC1 -6.9%
Cc1cc(Nc2cccc(O)c2)c2cccc(Br)c2n1 6.53%
COc1ccccc1[C@H](c1cccc2ccccc12)[C@@](C)(C#N)C(=O)N1CCC(c2cccc(C(F)(F)F)c2)CC1 -1.15%
CCOc1ccc2nc(N3CCCC(C(=O)NCc4ccc(C)cc4)C3)sc2c1 (stereo unspecified) 6.07%
Cc1ccc(C)c(NC(=O)Nc2csc3c2CCCC3)c1 5.74%
O=C(COCc1cc(-c2cccs2)on1)Nc1cccc(O)c1 0.101%
COc1ccc(NC(=O)Cn2cc(C(=O)c3cccs3)c3ccccc32)cc1 0.0792%
CCC1=C(c2ccc(C)cc2)S(=O)(=O)N=C1N1CCC(C(=O)N2CCCCC2)CC1 0.796%
COC(=O)c1c(C)sc(-c2c(-c3ccc4c(c3)OCCO4)[nH]c3c2c(=O)[nH]c(=O)n3C)c1O -27.3%
Cc1ccc(-n2cnc3cc(C(=O)NC4CCCCCC4)ccc32)cc1Cl -20.1%
COc1ccc(NC(=O)C2CCN(S(=O)(=O)c3c(C)noc3/C=C/c3ccc(C)cc3)CC2)cc1Cl -9.04%
Cc1c(CNCCCc2ccccc2)c(C(=O)O)c(C)n1Cc1cccc(Cl)c1 -0.252%
COc1ccc(-c2nn(C)c3sc(C(=O)N4CCN(c5cccc(Cl)c5)CC4)cc23)cc1OC 0.0809%
O=C(O)CO.[NH2-].[NH2-].[Pt+2] -5.19%
CCc1ccc(OCC(=O)Nc2ccc(Cl)c(-c3nc4ncccc4o3)c2)cc1 0.796%
COc1ccc(S(=O)(=O)c2cn(C)c3cc(N4CCOCC4)c(F)cc3c2=O)cc1 -8.39%
Cc1ccc(NS(=O)(=O)c2ccc3[nH]c4c(c3c2)CCCCC4)cc1 -15.9%
CC(C)(C)NC(=O)CCSc1nc(-c2ccc3c(c2)OCO3)cc(C(F)(F)F)n1 29.8%
CCN1CCN(C(=O)c2c(C)nn(-c3ccc(F)cc3)c2-n2cccc2)CC1 -21.1%
CCCCCCCCCCCC(CC1OC(=O)C1CCCCCC)OC(=O)C(CC(C)C)NC=O (stereo unspecified) 0.698%
Cc1ccc(C)c(NC(=O)CSc2nc(-c3ccccc3Cl)nc3c2Cc2c(CO)cnc(C)c2O3)c1 6.83%
CCOC(=O)c1cnc2nc(NCc3ccc(OCC)cc3)[nH]n2c1=O 7.21%
CN(C)c1ccc(CNC(=O)c2cccn2-c2nnc(N3CCCCC3)s2)cc1 42.6%
Cc1cc(-c2nc3ncccc3o2)ccc1NC(=O)COc1cc(C)c(Cl)c(C)c1 -22.8%
CCOC(=O)c1cccc(NC(=O)c2nn(-c3ccc(OC)cc3)c(=O)c3c2c2ccccc2n3C)c1 -6.55%
O=C(NCc1ccc(F)cc1)C(=O)NCC(c1cccs1)S(=O)(=O)c1cccs1 (stereo unspecified) 4.39%
CCN(CC)S(=O)(=O)c1ccc2c(c1)N(CC(=O)NCC(C)c1ccccc1)C(=O)CO2 (stereo unspecified) 7.37%
COc1ccccc1CNC(=O)c1ccc2c(c1)N(Cc1ccc(C)cc1)CCS2 9.3%
Cc1ccc(-n2ncc3c(N4CCCCCC4)ncnc32)cc1C -20.1%

outcome, inactive:
Cc1cc(C)cc(N2C(=O)CS(=O)(=O)C23C(=O)N(Cc2ccccc2)c2ccccc23)c1 (stereo unspecified)
O=C(NCCc1csc(-c2ccc(F)cc2)n1)C(=O)Nc1ccc(Cl)cc1
COc1ccc(C)cc1NC(=O)C1CCN(S(=O)(=O)c2cccc3nonc23)CC1
COc1ccccc1NC(=O)Cn1c(=O)n(Cc2nc(-c3ccccc3)no2)c(=O)c2ccccc21
CC(C)NC(=O)C1CCN(C(=O)N2CC(C)Oc3ccccc32)CC1 (stereo unspecified)
CCS(=O)(=O)NCCc1csc2nc(-c3ccc(C)cc3)nn12
Cc1cccc(-n2c(-c3ccco3)nc3c(cnn3-c3ccc(F)cc3)c2=O)c1
CC1CCc2c(sc(NC(=O)c3cc(-c4ccc(Br)cc4)on3)c2C(N)=O)C1 (stereo unspecified)
O=C(COc1ccccc1)Nc1c(Cl)ccc2nsnc12
COC(=O)CC1Oc2ccc(Cl)cc2-n2cc(-c3ccc(F)cc3)nc21 (stereo unspecified)
CC(=O)N1CCc2cc(S(=O)(=O)N3CCN(c4ccc(C)cc4)C(C)C3)ccc21 (stereo unspecified)
Cc1ccc(OCc2cc(=O)n3cc(C)sc3n2)c(C)c1
CCCCOc1ccc(C(=O)NCCc2csc(-c3ccc(OC)cc3)n2)cc1
CCN(Cc1ccccc1)S(=O)(=O)c1ccc2[nH]c3c(c2c1)CCCCC3
CN(Cc1ccccc1)c1ccc(-c2nc(-c3cccnc3)no2)cc1[N+](=O)[O-]
Cc1c(C(=O)OCCOc2ccccc2)[nH]c2c1C(=O)CC(c1ccccc1Cl)C2 (stereo unspecified)
CCc1ccccc1NC(=O)CN1C(=O)COc2ccc(S(=O)(=O)N3CCCCCC3)cc21
CCn1cc(C(=O)N2CCN(c3ccccc3OC)CC2)c(=O)c2cc(S(=O)(=O)N3CCC(C)CC3)ccc21

Reference: PubChem BioAssay AID1963576 (National Center for Advancing Translational Sciences (NCATS), 2024)
